Data published in PMC4336329 (PLoS ONE, 2015).
The whole screen tested about 310,000 compounds, of which about 2,200 (0.71%) showed an effect of 50% or more. The effect is printed as a negative number. Some of the results follow.

molecular target: human ether-à-go-go-related gene (hERG) potassium channel (human, UniProt Q12809); test: primary screen, population patch clamp on CHO cells stably expressing hERG
Sequence (Q12809 whole entry, looked up): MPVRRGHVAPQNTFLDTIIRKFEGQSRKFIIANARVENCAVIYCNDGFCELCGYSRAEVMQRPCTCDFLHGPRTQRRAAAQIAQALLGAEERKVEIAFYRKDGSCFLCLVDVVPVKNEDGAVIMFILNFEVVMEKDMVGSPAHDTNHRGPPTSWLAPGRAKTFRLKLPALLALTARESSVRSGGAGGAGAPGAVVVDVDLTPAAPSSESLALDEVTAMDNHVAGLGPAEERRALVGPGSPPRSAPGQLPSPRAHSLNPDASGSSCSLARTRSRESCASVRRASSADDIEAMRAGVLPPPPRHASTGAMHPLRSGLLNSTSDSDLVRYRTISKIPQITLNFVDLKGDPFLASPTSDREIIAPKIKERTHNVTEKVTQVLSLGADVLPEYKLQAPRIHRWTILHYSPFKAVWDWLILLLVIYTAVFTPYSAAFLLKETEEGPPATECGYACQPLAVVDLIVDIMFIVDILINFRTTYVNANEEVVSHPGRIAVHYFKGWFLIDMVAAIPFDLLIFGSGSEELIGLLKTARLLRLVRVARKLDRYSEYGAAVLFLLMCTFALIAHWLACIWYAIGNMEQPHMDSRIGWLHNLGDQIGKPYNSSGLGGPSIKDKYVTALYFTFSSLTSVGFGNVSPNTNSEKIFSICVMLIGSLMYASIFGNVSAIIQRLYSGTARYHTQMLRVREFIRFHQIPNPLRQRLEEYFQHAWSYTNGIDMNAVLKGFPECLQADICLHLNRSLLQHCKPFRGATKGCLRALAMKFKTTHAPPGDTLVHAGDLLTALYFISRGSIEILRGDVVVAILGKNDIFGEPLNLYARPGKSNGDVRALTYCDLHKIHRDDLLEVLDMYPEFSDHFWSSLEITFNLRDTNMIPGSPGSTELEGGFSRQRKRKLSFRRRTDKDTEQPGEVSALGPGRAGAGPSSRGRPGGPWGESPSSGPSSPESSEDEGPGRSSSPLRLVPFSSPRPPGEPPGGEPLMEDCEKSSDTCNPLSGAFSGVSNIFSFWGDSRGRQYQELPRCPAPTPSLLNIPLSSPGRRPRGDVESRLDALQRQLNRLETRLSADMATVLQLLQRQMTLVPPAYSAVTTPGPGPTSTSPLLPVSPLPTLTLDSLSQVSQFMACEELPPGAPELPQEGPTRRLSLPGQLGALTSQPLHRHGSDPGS

Point of comparison: `COc1ccc(Cc2c(O)nc(SCC(=O)N3CCOCC3)[nH]c2=O)cc1`, “hERG current change (%, negative = inhibition) at 1uM” value 12%. Against it:
- O=C(CCN1C(=O)S/C(=C\c2ccc(Cl)cc2)C1=O)Nc1ccc(C(=O)O)cc1 — higher, 13.9%
- O=C(Nc1nccs1)c1cc2c(s1)CCCCC2 — higher, 12.1%
- Cc1ccc(Nc2nc(NCCO)nc3c2cnn3C)cc1Cl — higher, 14.5%
- CCN(c1cccc(C(F)(F)F)c1)S(=O)(=O)c1ccc2c(c1)CCN2C(C)=O — lower, 9.81%
- Cc1ccc(S(=O)(=O)c2nnn3c2nc(N2CCN(c4ccccn4)CC2)c2ccccc23)cc1C — higher, 16.3%
- O=C(OCc1ccc(F)cc1)c1cc(S(=O)(=O)N2CCCCC2)ccc1N1CCOCC1 — lower, 4.59%
- COc1cccc(CN2CCNC(=O)C2CC(=O)NCC2CCOCC2)c1 (centres unmarked) — lower, 10.6%
- O=c1[nH]c2ccccc2cc1-c1nnn(-c2ccc(Cl)c(Cl)c2)n1 — lower, 2.29%
- COc1ccc(CCN(C)C(=O)N2CCOCC2)cc1OC — the same, 12%
- C=CCOC(=O)C1=C[C@H](C2CCCCC2)C[C@H](OCc2ccc(CO)cc2)O1 — higher, 15%
- CCOC(=O)c1ccc(NC(=O)CN2C(=O)C(CC)SC(CC)C2=O)cc1 (centres unmarked) — lower, 1.69%
- O=C1[C@H]2[C@@H](c3ccc(Cl)cc3)N3C(=O)N(c4cccc(F)c4)C(=O)[C@@]3(Cc3ccc(Cl)cc3)[C@H]2C(=O)N1C1CCCCC1 — lower, 2.05%
- CCn1nnnc1SCC(=O)Nc1ccc2c(c1)OCO2 — lower, 7.22%
- Cn1c(SCc2cccnc2)nnc1-c1c[nH]c2ccccc12 — lower, 8.78%
- O=C(CN1CCCCC1)Nc1ccc(NC(=O)c2ccc(Cl)cc2)cc1Cl — lower, 8.32%
- CCCNc1nc(-c2ccccc2)c(C(=O)OCC)cc1C#N — lower, 1.17%
- COc1ccc(C(C(=O)NC(C)(C)C)N(C(=O)CCC(=O)Nc2cc(C)on2)c2cc(C)cc(C)c2)cc1 (centres unmarked) — lower, 11.5%
- COc1ccc(-c2noc(CCC(=O)Nc3ccc(C)c(C)c3)n2)cc1 — lower, 7.73%
- COc1ccc(C(=O)N2CCN(Cc3cc(OC)c(O)c(OC)c3)CC2)cc1OC.O=C(O)C(=O)O — higher, 21.1%
- Cc1nc2ccc(NC(=O)c3ccc(N4C(=O)CCC4=O)cc3)cc2s1 — lower, 5.89%
- COc1ccc(OCc2nc(N)nc(Nc3ccccc3)n2)cc1 — lower, 7.66%
- CCOC(=O)C(C)Sc1snnc1C (centres unmarked) — lower, 11.8%
- O=C(O)c1ccccc1/C=N/N1CCN(C2c3ccccc3-c3ccccc32)CC1 — lower, 8.28%
- COc1cccc(CNC(=O)Cc2ccc(NC3=NC4CS(=O)(=O)CC4S3)cc2)c1 (centres unmarked) — lower, 6.79%
- COc1ccc(COn2nnc3ccc(S(=O)(=O)N4CCOCC4)cc32)cc1F — lower, 4.18%
- FC(F)(F)c1cccnc1-n1cncn1 — lower, 5.22%
- CC(C)(C)NC(=O)COC(=O)/C=C/c1ccccc1[N+](=O)[O-] — higher, 14.9%
- COc1ccc(OC)c(Nc2cc(C)c3ccccc3n2)c1 — lower, 9.76%
- CCOC(=O)C1=C(O)/C(=C/c2ccc(OCC(=O)Nc3ccc(C)cc3)cc2)N=C1C — lower, 10.6%
- O=C(CN1CCC(C(=O)c2ccc3c(c2)OCCO3)CC1)NCc1ccc(F)cc1 — lower, 3.51%
- Cc1nn(CC(=O)NCc2cccnc2)c(C)c1[N+](=O)[O-] — lower, 8.64%
- Cc1noc(C)c1S(=O)(=O)Nc1ccc(C(=O)NCc2ccccc2)cc1 — lower, 10.5%
- CC(=O)Oc1cccc(/C=C2\C=C(c3ccc(C)cc3)OC2=O)c1 — higher, 12.2%
- CCc1nccn1CCC(=O)N1CCCC(N2CCN(c3ccccc3C)CC2)C1 (centres unmarked) — lower, -17.4%
- O=C(N/N=C/c1ccc(-c2cccc(C(F)(F)F)c2)o1)c1ccccc1O — lower, 8.36%
- CCOC(=O)N1CCN(C(=O)c2cc3cc(OC)c(OC)cc3[nH]2)CC1 — lower, 7.4%
- O=C(COc1ccccc1)Nc1ccc2c(c1)C(=O)N(CC1CCCO1)C2=O (centres unmarked) — lower, 11.9%
- CC1(C)CC(=O)C/C(=N\NC(=O)CCc2ccc(S(=O)(=O)N3CCOCC3)cc2)C1 — higher, 12.6%
- COc1ccc2c(Cl)c(C(=O)N/N=C/c3cccnc3)sc2c1 — higher, 14%
- COC(=O)c1cccc(NC(=O)CSc2nnnn2C)c1 — higher, 18.9%
- COc1ccc2nc(NC(=O)CN3C(=O)NC4(CCCCC4)C3=O)sc2c1 — lower, 11.4%
- Nc1n[nH]c(-c2ccc([N+](=O)[O-])cc2[N+](=O)[O-])n1 — lower, 5.09%
- CCOc1ccc(S(=O)(=O)Nc2ncn[nH]2)cc1 — lower, 10.6%
